# Measurements reported in a collection of fitness landscapes (doi:10.1016/j.celrep.2020.107928).
# The full ranking holds about 81,000 sequences; the median of “one-hybrid fitness for binding NBS DNA” is about -0.1, and the highest 2% start at about 0.36. The list shows a part of the results.
# B1: Caulobacter ParB omega fusion; a variant is named by its letters at X, in order, B8GW30 (parent)
# chain: MESVVVGEPGMSEGRRGLGRGLSALLGEVDAAPAQAPGEQLGGSREAPIEILQRNPDQPRRTFREEDLEDLSNSIREKGVLQPILVRPSPDTAGEYQIVAGERAWRAAQRAGLKTVPIMVRELDDLAVLEIGIIENVQRADLNVLEEALSYKVLMEKFERTQENIAQTIGKSXSHVANXMRLLXLPDEVQSYLVSGELTAXHARAIAAAADPVALAKQIIEGGLSVRETEALARKAPNLSAGKSKGGRPPRVKDTDTQALESDLSSVLGLDVSIDHRGSTGTLTITYATLEQLDDLCNRLTRGI
# Variants of: B1
# Experiment: one-hybrid fitness for binding NBS DNA (the Noc-binding site; scaled: cognate 1, non-cognate 0); higher = stronger binding
# Settings: with NBS DNA site
# Procedure, shortened: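 Caulobacter ParB libraries with four specificity codons randomised were screened by bacterial one-hybrid selection in the E. coli USO strain, using a HIS3 reporter whose site lies 19 bp from the promoter. Selection ran for 48 hours at 37°C on M9 lacking histidine, with 0.1 mM IPTG and 5 mM 3-AT. Plasmids were Illumina-sequenced before and after selection, three replicate libraries were pooled, and variants with under 10 reads were dropped. Fitness is the log change in each variant's read ratio to wild type, rescaled against the cognate and non-cognate sites.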
row,Variant,one-hybrid fitness for binding NBS DNA
1,GHNT,≤ 0.2
2,QKMI,≤ 0.2
3,DTTI,≤ 0.2
4,NKSD,≤ 0.2
5,QTMA,0.32
6,DHPS,≤ 0.2
7,SFPG,≤ 0.2
8,QFYN,≤ 0.2
9,DSHP,≤ 0.2
10,HATL,≤ 0.2
11,VRFT,≤ 0.2
12,RAPR,≤ 0.2
13,LHNS,≤ 0.2
14,CQQG,≤ 0.2
15,FTPD,≤ 0.2
16,TRIC,≤ 0.2
17,RLCV,≤ 0.2
18,ATID,≤ 0.2
19,RMAP,≤ 0.2
20,RMAS,0.405
21,ENTF,≤ 0.2
22,MFAR,≤ 0.2
23,LFNR,≤ 0.2
24,FMNS,≤ 0.2

row,Variant,one-hybrid fitness for binding NBS DNA
1,RYEY,≤ 0.2
2,VLKL,≤ 0.2
3,QSIW,≤ 0.2
4,KSVC,≤ 0.2
5,QTAY,0.306
6,RFHG,≤ 0.2
7,YWLA,≤ 0.2
8,QQTG,≤ 0.2
9,RFHI,≤ 0.2
10,FLSM,≤ 0.2
11,KNAE,≤ 0.2
12,KDWS,≤ 0.2
13,NSSV,≤ 0.2
14,PDHV,≤ 0.2
15,LQVS,≤ 0.2
16,LMVG,≤ 0.2
17,YMGG,≤ 0.2
18,VLMH,≤ 0.2
19,PSEE,≤ 0.2
20,VNEF,≤ 0.2
21,VDVD,≤ 0.2
22,AMTT,≤ 0.2
23,TTAA,≤ 0.2
24,SRRE,≤ 0.2

row,Variant,one-hybrid fitness for binding NBS DNA
1,GTTF,≤ 0.2
2,HQVS,≤ 0.2
3,GEMS,≤ 0.2
4,GFPS,≤ 0.2
5,PPRC,≤ 0.2
6,QGYA,≤ 0.2
7,SIWC,≤ 0.2
8,LMCR,≤ 0.2
9,DQMT,≤ 0.2
10,VRRT,0.432
11,EKGT,≤ 0.2
12,RETD,≤ 0.2
13,GVHG,≤ 0.2
14,SAEL,≤ 0.2
15,FPSL,≤ 0.2
16,RDWR,≤ 0.2
17,HSYW,≤ 0.2
18,SINK,≤ 0.2
19,PDRW,≤ 0.2
20,MLVR,≤ 0.2
21,PGCC,≤ 0.2
22,DTYT,≤ 0.2
23,VTRF,≤ 0.2
24,RALF,≤ 0.2

row,Variant,one-hybrid fitness for binding NBS DNA
1,ERPD,≤ 0.2
2,WETS,≤ 0.2
3,EPDA,≤ 0.2
4,RTQS,0.459
5,NEDG,≤ 0.2
6,YWPM,≤ 0.2
7,GLIL,≤ 0.2
8,MSRH,≤ 0.2
9,RFHF,≤ 0.2
10,ETFT,≤ 0.2
11,SVGL,≤ 0.2
12,VLCR,≤ 0.2
13,EDRR,≤ 0.2
14,AHQF,≤ 0.2
15,RDIG,≤ 0.2
16,DRWL,≤ 0.2
17,SALI,≤ 0.2
18,VVFR,≤ 0.2
19,GNPC,≤ 0.2
20,MGPV,≤ 0.2
21,AFRH,≤ 0.2
22,SQKR,0.229
23,VKPV,≤ 0.2
24,WLMS,≤ 0.2

row,Variant,one-hybrid fitness for binding NBS DNA
1,IDPR,≤ 0.2
2,RRKD,0.226
3,MTQD,≤ 0.2
4,HPIS,≤ 0.2
5,PQPT,≤ 0.2
6,KHKH,≤ 0.2
7,PIPL,≤ 0.2
8,RRHI,0.228
9,SVYW,≤ 0.2
10,RPKP,≤ 0.2
11,PWMI,≤ 0.2
12,PWDI,≤ 0.2
13,NQCG,≤ 0.2
14,IGLG,≤ 0.2
15,QGKY,≤ 0.2
16,TLWA,≤ 0.2
17,PQHA,≤ 0.2
18,LSIC,≤ 0.2
19,CGYR,≤ 0.2
20,PCML,≤ 0.2
21,KSNC,≤ 0.2
22,SLHG,≤ 0.2
23,HRDS,≤ 0.2
24,RSQE,≤ 0.2

row,Variant,one-hybrid fitness for binding NBS DNA
1,SRIK,≤ 0.2
2,CHDC,≤ 0.2
3,DCRY,≤ 0.2
4,KVNG,≤ 0.2
5,SPRH,≤ 0.2
6,TLMD,≤ 0.2
7,CAKS,≤ 0.2
8,HAKD,≤ 0.2
9,THTE,≤ 0.2
10,ICYG,≤ 0.2
11,HPTP,≤ 0.2
12,RLVE,≤ 0.2
13,PCVA,≤ 0.2
14,NMTI,≤ 0.2
15,RAYD,≤ 0.2
16,MDAY,≤ 0.2
17,TQVR,≤ 0.2
18,DAVR,≤ 0.2
19,HITT,≤ 0.2
20,DFQA,≤ 0.2
21,NNGC,≤ 0.2
22,WAFG,≤ 0.2
23,CLEI,≤ 0.2
24,GHVS,≤ 0.2

row,Variant,one-hybrid fitness for binding NBS DNA
1,ENIG,≤ 0.2
2,SWNT,≤ 0.2
3,QYYC,≤ 0.2
4,KNKS,≤ 0.2
5,PPYY,≤ 0.2
6,PTTY,≤ 0.2
7,KRYL,≤ 0.2
8,PSEC,≤ 0.2
9,KRCW,≤ 0.2
10,THDY,≤ 0.2
11,QVTD,≤ 0.2
12,RREI,≤ 0.2
13,YFSY,≤ 0.2
14,HQSD,≤ 0.2
15,NEYG,≤ 0.2
16,VFNT,≤ 0.2
17,NSLC,≤ 0.2
18,SRGT,≤ 0.2
19,SFEW,≤ 0.2
20,DNMC,≤ 0.2
21,ANES,≤ 0.2
22,RCPW,≤ 0.2
23,MRCF,≤ 0.2
24,RGNA,≤ 0.2

row,Variant,one-hybrid fitness for binding NBS DNA
1,RWVN,≤ 0.2
2,RNPS,≤ 0.2
3,VWAF,≤ 0.2
4,AEPI,≤ 0.2
5,GTQR,≤ 0.2
6,YICG,≤ 0.2
7,GPIT,≤ 0.2
8,IYQG,≤ 0.2
9,LTYL,0.229
10,LNVP,≤ 0.2
11,SSAV,≤ 0.2
12,DVRV,≤ 0.2
13,RNRC,≤ 0.2
14,WNKT,≤ 0.2
15,DKVS,≤ 0.2
16,CRVG,≤ 0.2
17,WTRC,≤ 0.2
18,MVSE,≤ 0.2
19,PSPE,≤ 0.2
20,ANNL,≤ 0.2
21,LTTC,≤ 0.2
22,CDPS,≤ 0.2
23,AREC,≤ 0.2
24,DWEL,≤ 0.2

row,Variant,one-hybrid fitness for binding NBS DNA
1,FWPW,≤ 0.2
2,SPQR,≤ 0.2
3,TIAL,≤ 0.2
4,VHGG,≤ 0.2
5,SFVS,≤ 0.2
6,SDKW,≤ 0.2
7,KTNI,≤ 0.2
8,CIWR,≤ 0.2
9,NIVV,≤ 0.2
10,EQYP,≤ 0.2
11,SRMI,≤ 0.2
12,LSVY,≤ 0.2
13,LRPA,≤ 0.2
14,MTHA,≤ 0.2
15,YSCE,≤ 0.2
16,KMIK,≤ 0.2
17,SRNN,≤ 0.2
18,QRSE,0.22
19,TFDK,≤ 0.2
20,LIAT,≤ 0.2
21,AGQN,≤ 0.2
22,RECC,≤ 0.2
23,HRDQ,≤ 0.2
24,FDSW,≤ 0.2

row,Variant,one-hybrid fitness for binding NBS DNA
1,NRWC,≤ 0.2
2,RFPS,≤ 0.2
3,PCRC,≤ 0.2
4,CMNM,≤ 0.2
5,QAPA,≤ 0.2
6,WNKP,≤ 0.2
7,QANY,≤ 0.2
8,PKPV,≤ 0.2
9,RMSC,≤ 0.2
10,ETYS,≤ 0.2
11,FWMC,≤ 0.2
12,YDSG,≤ 0.2
13,TWNR,≤ 0.2
14,WRDR,≤ 0.2
15,FILT,≤ 0.2
16,CPPS,≤ 0.2
17,DAHV,≤ 0.2
18,ARSE,≤ 0.2
19,MTPE,≤ 0.2
20,HHSM,≤ 0.2
21,EMGS,≤ 0.2
22,DFNG,≤ 0.2
23,VFLS,≤ 0.2
24,VTYR,≤ 0.2

row,Variant,one-hybrid fitness for binding NBS DNA
1,ASAM,≤ 0.2
2,EPFW,≤ 0.2
3,KLMG,≤ 0.2
4,RVYA,≤ 0.2
5,MHNT,≤ 0.2
6,RAAR,0.385
7,PCKR,0.205
8,LFTR,≤ 0.2
9,KAHV,≤ 0.2
10,WVYT,≤ 0.2
11,TMTT,≤ 0.2
12,GERC,≤ 0.2
13,VCTK,≤ 0.2
14,RMIH,≤ 0.2
15,QPNG,≤ 0.2
16,VVTN,≤ 0.2
17,CTDW,≤ 0.2
18,QEAE,≤ 0.2
19,TLPG,≤ 0.2
20,VRVT,≤ 0.2
21,PYAR,≤ 0.2
22,LDHY,≤ 0.2
23,ERPW,≤ 0.2
24,FNCC,≤ 0.2

row,Variant,one-hybrid fitness for binding NBS DNA
1,FHIF,≤ 0.2
2,MYWS,≤ 0.2
3,FDDS,≤ 0.2
4,DANG,≤ 0.2
5,GPWC,≤ 0.2
6,ESMT,≤ 0.2
7,HMDM,≤ 0.2
8,CWVT,≤ 0.2
9,ARGQ,≤ 0.2
10,VFTK,≤ 0.2
11,MNYR,≤ 0.2
12,FAAS,≤ 0.2
13,ASAE,≤ 0.2
14,IHCL,≤ 0.2
15,ADVR,≤ 0.2
16,PNGC,≤ 0.2
17,HIYT,≤ 0.2
18,NHAC,≤ 0.2
19,VKGT,≤ 0.2
20,IFPY,≤ 0.2
21,PLTF,≤ 0.2
22,GYQT,≤ 0.2
23,MYPT,≤ 0.2
24,ALDN,≤ 0.2

row,Variant,one-hybrid fitness for binding NBS DNA
1,TAAP,≤ 0.2
2,EPRF,≤ 0.2
3,YTQG,≤ 0.2
4,RDCW,≤ 0.2
5,LWET,≤ 0.2
6,TPKQ,≤ 0.2
7,LFAT,≤ 0.2
8,RGPK,≤ 0.2
9,YSQW,≤ 0.2
10,WGYG,≤ 0.2
11,IWQV,≤ 0.2
12,SGVG,≤ 0.2
13,KTES,≤ 0.2
14,PCHT,≤ 0.2
15,AHTI,≤ 0.2
16,YESP,≤ 0.2
17,CSVV,≤ 0.2
18,KPIC,≤ 0.2
